From paper PMC5700166
This is a selection; strong and weak results do not stand in their true shares. For some assays here: The list includes weakly bound sequences.

target: T1, GST-Ap-NF-kB RHD (UniProt A0A913YAJ5); assay: protein-binding microarray (PBM); settings: PBM: ~300 nM protein, 6 mM HEPES pH 7.8, 80 mM KCl, 0.5 mM EDTA, 0.5 mM EGTA, 6% glycerol, 35 ng/ul poly-dIdC, 1% milk, 1 h, room temperature; high values mean tight binding; double strand, one strand shown
T1 sequence: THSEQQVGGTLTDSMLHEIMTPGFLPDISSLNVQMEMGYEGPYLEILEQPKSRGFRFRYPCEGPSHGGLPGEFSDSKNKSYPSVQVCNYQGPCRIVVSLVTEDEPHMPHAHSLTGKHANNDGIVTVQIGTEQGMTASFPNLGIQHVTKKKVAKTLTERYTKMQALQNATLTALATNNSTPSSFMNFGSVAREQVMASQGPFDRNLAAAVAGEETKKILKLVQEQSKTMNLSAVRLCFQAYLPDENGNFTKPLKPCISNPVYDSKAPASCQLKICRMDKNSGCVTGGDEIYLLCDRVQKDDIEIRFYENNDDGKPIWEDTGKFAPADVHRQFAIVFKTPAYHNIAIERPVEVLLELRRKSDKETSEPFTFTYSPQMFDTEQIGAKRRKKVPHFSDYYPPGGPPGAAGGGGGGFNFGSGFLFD

Sequence | binding signal
CCGATTAACATCACAAATTCCCATGATGTTAATCGGGTCTTGATTCGCTTGACGCTGCTG | 2.52 z-score
CCGATTAACATCAGGGGGAGGAATGATGTTAATCGGGTCTTGATTCGCTTGACGCTGCTG | 5.2 z-score
CCGATTAACATCAGGGAACTACCTGATGTTAATCGGGTCTTGATTCGCTTGACGCTGCTG | 4.91 z-score
CCGATTAACATCAGGGGGGTGTATGATGTTAATCGGGTCTTGATTCGCTTGACGCTGCTG | 3.69 z-score
CCGATTAACATCAGGGAAATCAATGATGTTAATCGGGTCTTGATTCGCTTGACGCTGCTG | 2.16 z-score
CCGATTAACATCAGGGGGATCACTGATGTTAATCGGGTCTTGATTCGCTTGACGCTGCTG | 5.55 z-score
CCGATTAACATCATATGGGAAAATGATGTTAATCGGGTCTTGATTCGCTTGACGCTGCTG | 1.55 z-score
CCGATTAACATCAGGGGAAAGAATGATGTTAATCGGGTCTTGATTCGCTTGACGCTGCTG | 4.95 z-score
CCGATTAACATCACGGATTCCCCTGATGTTAATCGGGTCTTGATTCGCTTGACGCTGCTG | 8.74 z-score
CCGATTAACATCAGGGAATTACATGATGTTAATCGGGTCTTGATTCGCTTGACGCTGCTG | 4.01 z-score
CCGATTAACATCAGGGGTACCCCTGATGTTAATCGGGTCTTGATTCGCTTGACGCTGCTG | 7.75 z-score
CCGATTAACATCAATAATTACCCTGATGTTAATCGGGTCTTGATTCGCTTGACGCTGCTG | 2.91 z-score
CCGATTAACATCACATTGTCCCCTGATGTTAATCGGGTCTTGATTCGCTTGACGCTGCTG | 4.03 z-score
CCGATTAACATCAACGGATTCCCTGATGTTAATCGGGTCTTGATTCGCTTGACGCTGCTG | 2.31 z-score
CCGATTAACATCACTTTCCCCCCTGATGTTAATCGGGTCTTGATTCGCTTGACGCTGCTG | 5.84 z-score
CCGATTAACATCACAGAACCCCCTGATGTTAATCGGGTCTTGATTCGCTTGACGCTGCTG | 7.53 z-score
CCGATTAACATCAGCCCCCCCCATGATGTTAATCGGGTCTTGATTCGCTTGACGCTGCTG | 4.34 z-score
CCGATTAACATCACCGTTTTCCCTGATGTTAATCGGGTCTTGATTCGCTTGACGCTGCTG | 3.62 z-score
CCGATTAACATCAGGGAAAATAATGATGTTAATCGGGTCTTGATTCGCTTGACGCTGCTG | 3.42 z-score
CCGATTAACATCAGATTTCCCCATGATGTTAATCGGGTCTTGATTCGCTTGACGCTGCTG | 7.4 z-score

Sequence | binding signal
CCGATTAACATCAAAAAACCCCATGATGTTAATCGGGTCTTGATTCGCTTGACGCTGCTG | 6.53 z-score
CCGATTAACATCAGGGGGCGCACTGATGTTAATCGGGTCTTGATTCGCTTGACGCTGCTG | 3.71 z-score
CCGATTAACATCAAATTCCCTCGTGATGTTAATCGGGTCTTGATTCGCTTGACGCTGCTG | 3.11 z-score
CCGATTAACATCAGGGATCCCCATGATGTTAATCGGGTCTTGATTCGCTTGACGCTGCTG | 7.26 z-score
CCGATTAACATCAGGGGAAGGGATGATGTTAATCGGGTCTTGATTCGCTTGACGCTGCTG | 4.77 z-score
CCGATTAACATCAGGGGAGGAAATGATGTTAATCGGGTCTTGATTCGCTTGACGCTGCTG | 3.45 z-score
CCGATTAACATCAAACCACCCCCTGATGTTAATCGGGTCTTGATTCGCTTGACGCTGCTG | 3.91 z-score
CCGATTAACATCAGGGGCACCCCTGATGTTAATCGGGTCTTGATTCGCTTGACGCTGCTG | 5.17 z-score
CCGATTAACATCAAGGGGGGGAGTGATGTTAATCGGGTCTTGATTCGCTTGACGCTGCTG | 4.51 z-score
CCGATTAACATCACAAATTCCCCTGATGTTAATCGGGTCTTGATTCGCTTGACGCTGCTG | 9.44 z-score
CCGATTAACATCAGAATATCCCATGATGTTAATCGGGTCTTGATTCGCTTGACGCTGCTG | 2.05 z-score
CCGATTAACATCAGGGAATTCTATGATGTTAATCGGGTCTTGATTCGCTTGACGCTGCTG | 5.04 z-score
CCGATTAACATCAGGGGACGTACTGATGTTAATCGGGTCTTGATTCGCTTGACGCTGCTG | 4.18 z-score
CCGATTAACATCACGGGATTTGGTGATGTTAATCGGGTCTTGATTCGCTTGACGCTGCTG | 1.89 z-score
CCGATTAACATCAGGAGCTCCCCTGATGTTAATCGGGTCTTGATTCGCTTGACGCTGCTG | 4.8 z-score
CCGATTAACATCAGGCCATCCCCTGATGTTAATCGGGTCTTGATTCGCTTGACGCTGCTG | 3.87 z-score
CCGATTAACATCACCCCCCCCCATGATGTTAATCGGGTCTTGATTCGCTTGACGCTGCTG | 4.92 z-score
CCGATTAACATCAGAGATTCCCCTGATGTTAATCGGGTCTTGATTCGCTTGACGCTGCTG | 8.42 z-score
CCGATTAACATCAGGTGTTCCCATGATGTTAATCGGGTCTTGATTCGCTTGACGCTGCTG | 1.43 z-score

target: T2, GST-Nv-NF-kB (Cys allele) (UniProt E5G601); assay: protein-binding microarray (PBM); settings: PBM: ~300 nM protein, 6 mM HEPES pH 7.8, 80 mM KCl, 0.5 mM EDTA, 0.5 mM EGTA, 6% glycerol, 35 ng/ul poly-dIdC, 1% milk, 1 h, room temperature; Ap Aiptasia and Nv Nematostella (sea anemones) / Co Capsaspora / Aq Amphimedon (sponge) / Dm Drosophila / Hu human; RHD is the Rel homology domain; high values mean tight binding; most listed sequences are background and not binding sites; double strand, one strand shown
T2 sequence: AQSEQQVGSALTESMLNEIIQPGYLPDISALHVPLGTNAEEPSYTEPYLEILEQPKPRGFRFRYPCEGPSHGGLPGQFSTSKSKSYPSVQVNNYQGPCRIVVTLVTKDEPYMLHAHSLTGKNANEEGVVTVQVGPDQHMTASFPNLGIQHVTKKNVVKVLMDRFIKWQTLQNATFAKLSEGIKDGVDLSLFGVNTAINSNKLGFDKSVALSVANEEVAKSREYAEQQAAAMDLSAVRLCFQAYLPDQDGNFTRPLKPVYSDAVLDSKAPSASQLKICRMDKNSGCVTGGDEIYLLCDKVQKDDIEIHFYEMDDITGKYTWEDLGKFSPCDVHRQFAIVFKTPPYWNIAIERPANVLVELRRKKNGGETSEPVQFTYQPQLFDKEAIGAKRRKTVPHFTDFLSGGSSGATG

Sequence | binding signal
CCGATTAACATCAGGGGGAGGAATGATGTTAATCGGGTCTTGATTCGCTTGACGCTGCTG | 4.58 z-score
CCGATTAACATCAGGGAAATCAATGATGTTAATCGGGTCTTGATTCGCTTGACGCTGCTG | 3.6 z-score
CCGATTAACATCAGGGGGATCACTGATGTTAATCGGGTCTTGATTCGCTTGACGCTGCTG | 4.61 z-score
CCGATTAACATCATATGGGAAAATGATGTTAATCGGGTCTTGATTCGCTTGACGCTGCTG | 3.76 z-score
CCGATTAACATCAGGGGAAAGAATGATGTTAATCGGGTCTTGATTCGCTTGACGCTGCTG | 6.07 z-score
CCGATTAACATCAGGGAATTACATGATGTTAATCGGGTCTTGATTCGCTTGACGCTGCTG | 5.15 z-score
CCGATTAACATCACATTGTCCCCTGATGTTAATCGGGTCTTGATTCGCTTGACGCTGCTG | 4.18 z-score
CCGATTAACATCAACGGATTCCCTGATGTTAATCGGGTCTTGATTCGCTTGACGCTGCTG | 3.57 z-score
CCGATTAACATCAAAAAACCCCATGATGTTAATCGGGTCTTGATTCGCTTGACGCTGCTG | 7.08 z-score
CCGATTAACATCAAATTCCCTCGTGATGTTAATCGGGTCTTGATTCGCTTGACGCTGCTG | 4.96 z-score
CCGATTAACATCAGGGGAAGGGATGATGTTAATCGGGTCTTGATTCGCTTGACGCTGCTG | 4.77 z-score
CCGATTAACATCAAACCACCCCCTGATGTTAATCGGGTCTTGATTCGCTTGACGCTGCTG | 3.14 z-score
CCGATTAACATCAGGGGCACCCCTGATGTTAATCGGGTCTTGATTCGCTTGACGCTGCTG | 3.94 z-score
CCGATTAACATCACAAATTCCCCTGATGTTAATCGGGTCTTGATTCGCTTGACGCTGCTG | 10.9 z-score
CCGATTAACATCAGAATATCCCATGATGTTAATCGGGTCTTGATTCGCTTGACGCTGCTG | 1.17 z-score
CCGATTAACATCAGGGAATTCTATGATGTTAATCGGGTCTTGATTCGCTTGACGCTGCTG | 6.52 z-score
CCGATTAACATCAGGTGTTCCCATGATGTTAATCGGGTCTTGATTCGCTTGACGCTGCTG | 0.641 z-score
